We go through 167 variants from the RNAGym collection of RNA variant scans (doi:10.7554/elife.90254).

The labels stand for the following.
B1: LINE1-full (parent)
chain: UACGUAGGUGGUUUUCCCCUGAUAGUGCUAAGGGGGCCUGGAAGUUUGGACUGGGCAGAGCUCAACACAGCGUGGCAAAGUGGCUGUGGCUAGACUGCCUCUCUGGAUUCCUCGUCACUCAGCAGGGCAUCUCUGAGAGAAAUGCC

Read counts are not given, so values of variants with three or more changes are uncertain.

Variants of B1 are the subject of this series. Briefly: self-cleavage, relative activity (ratio to wild type); higher = more cleavage; in vitro, sequencing; the parent is a self-cleaving ribozyme.
For the variant U81A A92G U100A U102C, the self-cleavage amounted to 0.61.
U20A G25A U100C: the self-cleavage turned out to be 0.
To G4A U47C G105A belongs 0.87.
With A2G U9C U20C A65G U87G, the self-cleavage worked out at 0.
To U14C U23A A50G U104C U130A U134C belongs 0.
To G4A A65G U115C belongs 0; to A78G A79G U96C U112G C113U, 0; to U12A U47A A50G, 1.46.
With U52C A124U U130A, the self-cleavage is 0.93.
To A50G U87C U134C U143C belongs 0.42; to U15A A22G U108C, 0.
As to U5C U9A U62C, the self-cleavage turned out to be 0.
To G35U U47C U52C C90U belongs 0.09; to U14G A65G U85C U102C, 0; to A2U U20C A50G A59U U134C, 1.31.
The value for C71A U109C U112C was 0.29; that for U62A U96C U104A was 0.04; that for G48A U52A A138G was 1.18.
Consider A64U A65G U115A, for which the self-cleavage stood at 0.02.
For A43G U46C A64G U100C, the self-cleavage is 0.
For the variant U85C U102C C111U, the self-cleavage worked out at 0.17.
Turning to A69G A78U C120A, the self-cleavage amounted to 0.72.
To A42G A59G U108C A136G belongs 0.37; to U13C U73C U143A, 1.91.
To A92U U115C A124G belongs 0.
On to U13A A22G G74A, for which the self-cleavage came to 0.8.
To A2U U15C C28A U81C U134A belongs 0.84; to A2G U46C A78G U85C, 0.37; to G35A A43C U47A A59G, 0.14.
To U87C G88U U104G belongs 0; to U12C U46C C71U U108C, 1.1.
The value for U9A A42G A136U was 0.69.
U14C A121G A141G: the self-cleavage came out at 1.38.
To A67U A77U U85C U87A belongs 0.05; to U26C U47C G58C U62A, 0.05.
On to U14C A79G G83A U96A U115C, for which the self-cleavage was 0.04.
On to A30G A94G U132C, for which the self-cleavage came out at 0.
The value for G53A A64U G74U U91C U96G A107U was 0.02.
The value for G33A U39G A64G was 0.29; that for U12C U14C A30U U134A A141G was 0.95.
For A67G U102C A140G, the self-cleavage turned out to be 1.75.
For the variant A64G A77U A78G, the self-cleavage is 0.52.
For U5C U14A U52A C145G, the self-cleavage stood at 0.34.
To A24G G88A U115A belongs 0.07; to U132C U134C A138G, 0.45; to C71G C113U U132C G137A, 0.3.
The value for U13C U96C U108C A121C was 0.
On to A69G A77G U102A U104A, for which the self-cleavage is 0.
The value for C3U U15C U23C U45C U102C was 0.92.
To A22C A43G C84U U104A A136G belongs 0.06; to U9A U73C C84U U134C, 0.33; to A6G U15A U134G, 1.75.
As to A2G A31U U46C A78G A129U, the self-cleavage amounted to 0.43.
To U26A C103U U119C U143A belongs 1.32; to G8A C76U A79G A121G, 2.16; to A64U C71U U112C, 0.22.
To U20C A78G U134C belongs 1.4; to G4A U62A U85A, 0.09.
The value for A67U C116A U130A was 0.1; that for G54U A64G A78G was 0; that for U20C U87A U104C was 0.14.
Turning to U15C U45A A79G A138G, the self-cleavage was found to be 0.75.
As for U13C U15C G125A, the self-cleavage is 1.12.
As for U5C A50U A141G, the self-cleavage was determined as 0.86.
To A78U A117U U119A belongs 1.85.
Regarding U14C A65U A67U, the self-cleavage came to 0.11.
To U13C U26C U87A G106U U115A belongs 0.09; to G11A U13C A22U A50G A140G U143C, 0.54.
On to A22G G49A C63U A92U A121G, for which the self-cleavage stood at 0.29.
To C19G A77G A92G belongs 0.97; to A2G U13C A141G, 0.98.
For U73C G82A U132C, the self-cleavage amounted to 1.87.
As to U9C U20A A42G C98U, the self-cleavage came to 1.29.
The value for U12C U20C G33A U91A was 1.09; that for A42U U100A U132C was 0.96.
The value for U15C U73G C123U was 1.42.
To U15A A43G U45C U115C belongs 1.02; to G34A A50G C56U A78U, 0.05; to A6G U14A U112C, 0.77.
Turning to U13C A59G A67U C71U C113U A141G, the self-cleavage amounted to 0.03.
To U47A U52A G60U U134C belongs 0.02; to U5A G33A U85C, 0; to U39C C71G A79U U112C, 0.16.
With U62C C66U A121G, the self-cleavage amounted to 0.05.
The value for U39A A117G C131U was 1.16; that for C38U G54A G75A was 0.6.
As to U12A G48U U62C U100C, the self-cleavage turned out to be 0.
The value for U20C A42G A43U U52C G72A was 1.49; that for U13C U14C U47A was 1.07.
For the variant U47C U62C C103U, the self-cleavage is 0.12.
The value for A50G U112C U115C A129U U143A was 0; that for A57U U100C A140G was 0.34.
The value for G36U G80U U91G A129G was 0.02.
The value for A43G A50C A65U G127U was 0.32; that for C19G U45C U100A U130A was 1.53.
Regarding G34A A57G U96C, the self-cleavage was found to be 1.81.
The value for A2G U85G C113U was 0.28; that for A2G A42G A43G A64G G139A was 0; that for A43G A77G U102A U112A was 1.48.
On to U46C U62A U134C, for which the self-cleavage is 0.07.
The value for U62C C116A A140C was 0.04; that for A79G U102C A129U A138G C146U was 0.61; that for A64U A67G A94G was 0.
On to U5C A78G A142G, for which the self-cleavage is 1.7.
To A50G U62C A138U belongs 0; to A65G A67G U73C U112A C123U, 0; to U5C U87A A142G, 0.13.
To A43G A64G G83C A117G belongs 0.3.
The value for G33U A64G U115C A124U was 0.11; that for U23C U26C G27U A59G C133U A141G was 0.19.
On to A57U A78G U112A A138G, for which the self-cleavage turned out to be 0.02.
For A57G A77U U134C, the self-cleavage came to 0.75.
As for U26A A67G U96A U143C, the self-cleavage was 0.03.
The value for U62A C71U U96C was 0; that for U20A A94G U130C was 0.59.
The value for G36A U46C U102A U104C U115A was 1.86; that for U1C U13C U96C U115A was 0.07; that for A43G U45C U85G U102A was 0.
Consider A6G A30U G36C U96A, for which the self-cleavage was determined as 0.33.
With U39C U52G A129U A140G, the self-cleavage came to 1.57.
To C37U A77G A117G belongs 1.99.
The value for U26C G36U U112C was 1.14; that for A43G U62C A77G U115A was 0; that for U47C U73A G88A was 0.06.
Turning to A22G A64G A94G C123U, the self-cleavage is 0.12.
On to C3U U109A U119C, for which the self-cleavage worked out at 1.11.
On to U29A U115C U143C, for which the self-cleavage turned out to be 0.36.
With U29C U46A G54A U102A, the self-cleavage was determined as 0.71.
U15C C113U G122A: the self-cleavage turned out to be 1.84.
As for U14C A43G A79G, the self-cleavage stood at 0.77.
To U26C U62C A69U G83A belongs 0.02; to A31G G72A U104G, 1.02.
To A31U A42G G55U A57G U91A belongs 0.05; to A77G A107G A142G U143A, 2.55.
As to G54A A107U A129G A140G, the self-cleavage is 0.82.
To U20C A50U G58U A69U U87C A124U belongs 0.09; to C19U U26A A107U, 1.49; to U26C G35C G82A, 2.27.
To U46C U47A U100C belongs 1.23.
The value for C84U C95A U132A was 0.03; that for U20A U108A U119C U132C A140G was 0.46.
Turning to U112A A129G A141G, the self-cleavage came out at 1.31.
To A59G G88U G97A A121G belongs 0.02; to A64G G97A U102C, 0.04.
As to U26C A43G A78G, the self-cleavage is 0.36.
To U12G U20A U29A C111A A138U belongs 1.97.
Regarding U20G A31G A43G C68U A94G, the self-cleavage turned out to be 0.
For U20A A42G U115A A140G, the self-cleavage stood at 1.58.
To U52A A57G A64G U115A A138G belongs 0.82; to G32A U85A U104A A121U, 0.17.
For A22G A57G A64U A77G, the self-cleavage turned out to be 0.42.
As for A43G U119A G135A, the self-cleavage came to 1.2.
As to A2G U13C U119C A124G A129G, the self-cleavage was 1.15.
The value for G32A A69U G72A was 0.05; that for U14C G48U A59U G70A was 0.08; that for U14G A30U U115A A121U was 1.84.
Consider U5C A77U U102C, for which the self-cleavage came to 0.43.
As to A67G U104A A136G, the self-cleavage is 0.46.
The value for G7A G21A A79G U87C U96A U132A was 0.16; that for A67U U85A C116U was 0.02; that for U9C U12G U14C was 1.78.
In the case of U46C A77G A92G, the self-cleavage came to 0.
As to G35A U87A U119C, the self-cleavage came out at 0.06.
To U39C C103A U130A belongs 0.77; to A6U U9C U20G U52A A59G U104C U112A G137A, 1.84; to A50G U87C U102C, 0.
The value for C19U A43C U73A G75A A121U was 1.19.
